In paper PMC12820563, “FoxP3 forms a head-to-head dimer in vivo and stabilizes its multimerization on adjacent microsatellites” one finds binding signal data, which are given here for 40 sequences.

The list shows a part of the results.

The assay addresses T1, MBP-FoxP1dN (Mus musculus, UniProt P58462 326-579).
T1 sequence: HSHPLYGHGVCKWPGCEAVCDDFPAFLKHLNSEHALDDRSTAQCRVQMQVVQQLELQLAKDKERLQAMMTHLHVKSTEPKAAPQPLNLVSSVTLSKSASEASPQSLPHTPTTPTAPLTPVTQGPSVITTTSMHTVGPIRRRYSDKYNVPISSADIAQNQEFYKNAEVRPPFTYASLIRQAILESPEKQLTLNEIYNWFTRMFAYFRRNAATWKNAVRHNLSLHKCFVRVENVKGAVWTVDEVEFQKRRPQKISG
Nature of the assay: PD-seq (MBP pull-down with sequencing); 20 mM Tris-HCl pH 7.5, 100 mM NaCl, 1.5 mM MgCl2, 0.4 uM protein, 0.1 uM dsDNA library, 30 min, room temperature, amylose pull-down; high values mean tight binding. The conditions noted are these: protein: recombinant; tags: His6-MBP; chain copies: 2; dsDNA, one strand shown. The essentials: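 In Tris pH 7.5 buffer with NaCl and MgCl2, 0.4 µM His6-MBP-tagged mouse FoxP3 or FoxP1 fragment lacking the N-terminus, from E. coli, met 0.1 µM Klenow-filled double-stranded degenerate DNA library for 30 min at room temperature. Three washes on amylose resin followed capture of the complexes, then proteinase K release of DNA, PCR barcoding and Illumina sequencing. Binding is taken as pooled-replicate reads-per-million enrichment of pull-down relative to input.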
As to “GATGATTGTTCTCCCAGCTGATGAATTCGGTGGTTCGAGTAAACAAATTTTCCTAATCTTTCTGTTCAAGCGCCATCTAC”, the binding signal is 0.814 RPM ratio (pull-down/input).
For “GATGATTGTTCTCCCAGCTGATGAATTAACAAGCTCGAGTAAACAAATTTTCCTAATCTTTCTGTTCAAGCGCCATCTAC” the value was 1.09 RPM ratio (pull-down/input); for “GATGATTGTTCTCCCAGCTGATGAATTCTTGACGTCGAGTAAACAAATTTTCCTAATCTTTCTGTTCAAGCGCCATCTAC”, 0.831 RPM ratio (pull-down/input).
Regarding “GATGATTGTTCTCCCAGCTGATGAATTGACAATCTCGAGTAAACAAATTTTCCTAATCTTTCTGTTCAAGCGCCATCTAC”, the binding signal was 1.38 RPM ratio (pull-down/input).
For “GATGATTGTTCTCCCAGCTGATGAATTAGTGGTGTCGAGTAAACAAATTTTCCTAATCTTTCTGTTCAAGCGCCATCTAC” the value was 0.998 RPM ratio (pull-down/input); for “GATGATTGTTCTCCCAGCTGATGAATTAGCAAAATCGAGTAAACAAATTTTCCTAATCTTTCTGTTCAAGCGCCATCTAC”, 1.19 RPM ratio (pull-down/input).
For “GATGATTGTTCTCCCAGCTGATGAATTACCATCATCGAGTAAACAAATTTTCCTAATCTTTCTGTTCAAGCGCCATCTAC” the value was 1.08 RPM ratio (pull-down/input); for “GATGATTGTTCTCCCAGCTGATGAATTGACTAGGTCGAGTAAACAAATTTTCCTAATCTTTCTGTTCAAGCGCCATCTAC”, 0.889 RPM ratio (pull-down/input).
Turning to “GATGATTGTTCTCCCAGCTGATGAATTCGCGAAGTCGAGTAAACAAATTTTCCTAATCTTTCTGTTCAAGCGCCATCTAC”, the binding signal was 0.827 RPM ratio (pull-down/input).
Take “GATGATTGTTCTCCCAGCTGATGAATTTTTCGTGTCGAGTAAACAAATTTTCCTAATCTTTCTGTTCAAGCGCCATCTAC”: the binding signal was 0.984 RPM ratio (pull-down/input).
Regarding “GATGATTGTTCTCCCAGCTGATGAATTCCTTGAATCGAGTAAACAAATTTTCCTAATCTTTCTGTTCAAGCGCCATCTAC”, the binding signal was 0.874 RPM ratio (pull-down/input).
The value for “GATGATTGTTCTCCCAGCTGATGAATTAATCTTTTCGAGTAAACAAATTTTCCTAATCTTTCTGTTCAAGCGCCATCTAC” was 0.96 RPM ratio (pull-down/input).
For “GATGATTGTTCTCCCAGCTGATGAATTTTACCTGTCGAGTAAACAAATTTTCCTAATCTTTCTGTTCAAGCGCCATCTAC” the value was 0.832 RPM ratio (pull-down/input); for “GATGATTGTTCTCCCAGCTGATGAATTCAACTGGTCGAGTAAACAAATTTTCCTAATCTTTCTGTTCAAGCGCCATCTAC”, 0.842 RPM ratio (pull-down/input).
The value for “GATGATTGTTCTCCCAGCTGATGAATTCGGAACCTCGAGTAAACAAATTTTCCTAATCTTTCTGTTCAAGCGCCATCTAC” was 0.757 RPM ratio (pull-down/input); that for “GATGATTGTTCTCCCAGCTGATGAATTGTCCAATTCGAGTAAACAAATTTTCCTAATCTTTCTGTTCAAGCGCCATCTAC” was 1.05 RPM ratio (pull-down/input); that for “GATGATTGTTCTCCCAGCTGATGAATTTGTACCGTCGAGTAAACAAATTTTCCTAATCTTTCTGTTCAAGCGCCATCTAC” was 1.12 RPM ratio (pull-down/input).
Regarding “GATGATTGTTCTCCCAGCTGATGAATTGGGGAGGTCGAGTAAACAAATTTTCCTAATCTTTCTGTTCAAGCGCCATCTAC”, the binding signal was 0.725 RPM ratio (pull-down/input).
The value for “GATGATTGTTCTCCCAGCTGATGAATTACATGCCTCGAGTAAACAAATTTTCCTAATCTTTCTGTTCAAGCGCCATCTAC” was 1.14 RPM ratio (pull-down/input); that for “GATGATTGTTCTCCCAGCTGATGAATTAAATAGGTCGAGTAAACAAATTTTCCTAATCTTTCTGTTCAAGCGCCATCTAC” was 0.96 RPM ratio (pull-down/input).
As for “GATGATTGTTCTCCCAGCTGATGAATTGTCCGTGTCGAGTAAACAAATTTTCCTAATCTTTCTGTTCAAGCGCCATCTAC”, the binding signal is 0.972 RPM ratio (pull-down/input).
As to “GATGATTGTTCTCCCAGCTGATGAATTTATTTTATCGAGTAAACAAATTTTCCTAATCTTTCTGTTCAAGCGCCATCTAC”, the binding signal was 1.46 RPM ratio (pull-down/input).
As to “GATGATTGTTCTCCCAGCTGATGAATTGATTTTGTCGAGTAAACAAATTTTCCTAATCTTTCTGTTCAAGCGCCATCTAC”, the binding signal is 1.16 RPM ratio (pull-down/input).
For “GATGATTGTTCTCCCAGCTGATGAATTACGGCGCTCGAGTAAACAAATTTTCCTAATCTTTCTGTTCAAGCGCCATCTAC” the value was 0.907 RPM ratio (pull-down/input); for “GATGATTGTTCTCCCAGCTGATGAATTTCCGGGGTCGAGTAAACAAATTTTCCTAATCTTTCTGTTCAAGCGCCATCTAC”, 0.752 RPM ratio (pull-down/input).
The value for “GATGATTGTTCTCCCAGCTGATGAATTCCCCTTTTCGAGTAAACAAATTTTCCTAATCTTTCTGTTCAAGCGCCATCTAC” was 0.839 RPM ratio (pull-down/input).
The value for “GATGATTGTTCTCCCAGCTGATGAATTATCGCACTCGAGTAAACAAATTTTCCTAATCTTTCTGTTCAAGCGCCATCTAC” was 1.01 RPM ratio (pull-down/input).
For “GATGATTGTTCTCCCAGCTGATGAATTGGATTGTTCGAGTAAACAAATTTTCCTAATCTTTCTGTTCAAGCGCCATCTAC”, the binding signal is 1.02 RPM ratio (pull-down/input).
In the case of “GATGATTGTTCTCCCAGCTGATGAATTTTTTCGGTCGAGTAAACAAATTTTCCTAATCTTTCTGTTCAAGCGCCATCTAC”, the binding signal is 0.853 RPM ratio (pull-down/input).
“GATGATTGTTCTCCCAGCTGATGAATTATCTTGATCGAGTAAACAAATTTTCCTAATCTTTCTGTTCAAGCGCCATCTAC”: the binding signal is 0.974 RPM ratio (pull-down/input).
The value for “GATGATTGTTCTCCCAGCTGATGAATTCGGCGTATCGAGTAAACAAATTTTCCTAATCTTTCTGTTCAAGCGCCATCTAC” was 0.924 RPM ratio (pull-down/input); that for “GATGATTGTTCTCCCAGCTGATGAATTGCACGCTTCGAGTAAACAAATTTTCCTAATCTTTCTGTTCAAGCGCCATCTAC” was 1.17 RPM ratio (pull-down/input); that for “GATGATTGTTCTCCCAGCTGATGAATTCACTAAGTCGAGTAAACAAATTTTCCTAATCTTTCTGTTCAAGCGCCATCTAC” was 0.824 RPM ratio (pull-down/input).
Consider “GATGATTGTTCTCCCAGCTGATGAATTATAAGATTCGAGTAAACAAATTTTCCTAATCTTTCTGTTCAAGCGCCATCTAC”, for which the binding signal is 1.02 RPM ratio (pull-down/input).
With “GATGATTGTTCTCCCAGCTGATGAATTATGGCCGTCGAGTAAACAAATTTTCCTAATCTTTCTGTTCAAGCGCCATCTAC”, the binding signal is 0.834 RPM ratio (pull-down/input).
The value for “GATGATTGTTCTCCCAGCTGATGAATTGTCGGTATCGAGTAAACAAATTTTCCTAATCTTTCTGTTCAAGCGCCATCTAC” was 1.05 RPM ratio (pull-down/input).
“GATGATTGTTCTCCCAGCTGATGAATTCGCACGTTCGAGTAAACAAATTTTCCTAATCTTTCTGTTCAAGCGCCATCTAC”: the binding signal was 0.887 RPM ratio (pull-down/input).
On to “GATGATTGTTCTCCCAGCTGATGAATTATTAAAATCGAGTAAACAAATTTTCCTAATCTTTCTGTTCAAGCGCCATCTAC”, for which the binding signal was 1.32 RPM ratio (pull-down/input).
The value for “GATGATTGTTCTCCCAGCTGATGAATTTTACATGTCGAGTAAACAAATTTTCCTAATCTTTCTGTTCAAGCGCCATCTAC” was 0.94 RPM ratio (pull-down/input); that for “GATGATTGTTCTCCCAGCTGATGAATTCGTCCTCTCGAGTAAACAAATTTTCCTAATCTTTCTGTTCAAGCGCCATCTAC” was 0.815 RPM ratio (pull-down/input).
